Test results reported in PubChem BioAssay AID485313 (National Center for Advancing Translational Sciences (NCATS), 2010).
Screen size: about 320,000 compounds; about 7,600 (2.4%) were called active. Inconclusive results, whose numbers are uncertain, are shown with a selection of clear calls. The call rests on the fitted dose curve; in most records, active means well fitted activation curve with a large enough effect; inconclusive means small, poorly fitted or top-dose-only effect; inactive means no such curve, though single readings can be large or run the other way. Potencies beside an inconclusive call are fits to weak or partial responses and may not hold up.

Test: qHTS Assay for NPC1 Promoter Activators; further: nearly all actives have a fitted effect of over 60% in size; on activation: % of control where 0% means no effect
Conditions: Huh7 NPC1 promoter luciferase reporter, 24 h; series mostly up to 9.22 µM; activation: at the top concentration
From the text: NIH Chemical Genomics Center [NCGC] NIH Molecular Libraries Probe Production centers Network [MLPCN] MLPCN Grant: MH089375-01A1 Assay Submitter (PI): Yiannis A. Ioannou NCGC Assay Overview: Niemann Pick Type C (NPC) is a rare neurodegenerative lipidosis that is characterized by lipid storage in the endosomal/lysosomal system. Treatment modalities for this devastating disease are currently non-existent due to the severe obstacles associated with accessing the central nervous system with proteins or genes. The majority of mutations causing NPC disease are missense mutations that are distributed throughout the length of the NPC1 protein, with the most prevalent being the I1061T allele. Although NPC1 mutant proteins may be functional, they are typically trapped in the ER due to misfolding. […] We have developed and optimized a cell based luciferase reporter assay in 1536 well format for the identification of up-regulators of the mutant NPC1 promoter.
The NPC1 promoter is cloned in front of the luciferase reporter gene, therefore NPC promoter activation results in luciferase expression. Frozen stock of the NPC1 promoter transfected Huh7 cells were obtained from the laboratory of Dr. Yiannis Ioannou (The Mount Sinai School of Medicine, New York, NY). Cells were propagated and maintained at NCGC in medium containing RPMI-1640 supplemented with 10% FBS, 2mM L-glutamine, and 50ug/ml penicillin/streptomycin. Cells were harvested in and plated for assays in OP-MEM I reduced-serum medium supplemented with 10% FBS. The Amplite luciferase reporter gene assay kit was purchased from ABD Bioquest and prepared/stored according to manufacturers recommendations. qHTS Assay Setup: 1.#Dispensed 5ul of Huh7 cells stably expressing NPC1-luciferase at a density of 1500 cells per well 1536-well plates. 2.#Incubate cells at 37C, 5% CO2, and 95% humidity for 2 hours. 3.#Transferred 23nl per well of compound in DMSO solution. 4.#Incubated at 37C, 5% CO2, and 95% humidity for 24 hours. 5.#Dispensed 3ul per well of Amplite reagent(ABD Bioquest) per well. 6.#Incubate at ambient for 10 minutes. 7.#Read using the luminescence protocol on the ViewLux plate reader (Perkin Elmer).
Potency means the concentration at half of the fitted maximal effect; tags describe the fitted curve by direction and shape.

activation, inactive:
O=C1CC2(CCN(C(=O)c3ccc(F)cc3)CC2)Oc2ccccc21 -0.432%
O=C(NCc1cccnc1)C(=O)NCC1OCCN1S(=O)(=O)c1ccc(F)cc1 (centres undefined) 1.36%
COc1ccc(N2Nc3n[nH]c(N)c3N2)cc1 20.5%
O=C(COC(=O)c1ccc(Oc2ccccc2)cc1)Nc1nnc(-c2ccccc2)o1 6.91%
Cn1c(-c2ccccc2)cnc1N 28.2%
Cc1cc(C)nc(NS(=O)(=O)c2ccc(NC(=O)c3snnc3C)cc2)n1 -4.23%
CS(=O)(=O)N1N=C(c2ccccc2)CC1c1cccs1 (centres undefined) 15.6%
CC(NC(=O)CCl)c1ccccc1Br (centres undefined) -14.5%
Cc1[nH]nc(N=CC2=C(O)CC(C)(C)CC2=O)c1-c1ccccc1 -3.97%
Cc1ccnn1-c1ccc(C(=O)OCC(=O)Nc2ccc(F)cc2)cc1 3.78%
COc1cc(CN2CCC(C(=O)NC3CCCC3)CC2)cc(Br)c1O 2.49%
N#CC(C(=O)Nc1ccccc1)=C1Nc2ccccc2N1 -0.909%
Cc1csc(NC(=O)CCCNC(=O)c2ccc(Cl)cc2)n1 -0.0109%
O=C(c1cccc(Br)c1)N1CCN(S(=O)(=O)N2CCCCCC2)CC1 -4.06%

Potency, inconclusive:
COc1ccc(/C=C/C(=O)Nc2ccccc2)cc1OC 3550 nM [activator, partial curve]
O=c1oc(-c2cccs2)nc2sc3c(c12)CCCCC3 3160 nM [activator, single point]
COc1cccc(/C=N/NC(=O)CNC(=O)c2ccc(S(=O)(=O)N3CCOCC3)cc2)c1OC 1260 nM [activator, single point]
NC(=O)c1ccccc1NC(=O)/C=C/c1ccccc1 2820 nM [activator, partial curve]
c1coc(-c2nc(-c3ccncc3)no2)c1 2510 nM [activator, partial curve]
Cc1cccc(C)c1NC(=O)c1c[nH]c2ccccc12 1780 nM [activator, partial curve]
Cc1cc(C)n2nc(C(=O)Nc3ccc4c(c3)OCCO4)nc2n1 3160 nM [activator, partial curve]
COc1ccc(CCN2CC(C(=O)NCCc3ccccc3)CC2=O)cc1OC (centres undefined) 3550 nM [activator, single point]
COc1ccccc1CNC(=O)c1ccoc1C 3160 nM [activator, single point]
C=CCOC(=O)Cn1cnc2c(sc3nc(C)cc(C)c32)c1=O 3550 nM [activator, single point]
CCc1ccc(NC(=S)NC(=O)CC(C)C)cc1 3550 nM [activator, partial curve]
O=C(Nc1ccccc1)c1ccc(COc2ccccc2)cc1 3980 nM [activator, partial curve]
CC(C)Cc1nnc(NC(=O)C2=COCCO2)s1 2820 nM [activator, partial curve]
Nc1cccc(NC(=O)CCC(=O)NCc2ccco2)c1 1260 nM [activator, single point]
COc1ccc(NC(=O)c2cc(-c3ccccc3Cl)on2)cc1 2820 nM [activator, partial curve]
O=C(NCCc1c[nH]c2ccccc12)c1cnc2n(c1=O)CCS2 3550 nM [activator, partial curve]
CCc1c(C)sc(NC(=O)c2ccco2)c1C#N 891 nM [activator, partial curve]
Clc1ccc(OCc2cn3cccnc3n2)c2ncccc12 2240 nM [activator, partial curve]
O=C(Nc1cccnc1Cl)c1cc([N+](=O)[O-])ccc1Cl 282 nM [activator, full curve]
CC1(C)CC(=O)c2sc(NC(=O)C(C)(C)C)nc2C1 2820 nM [activator, partial curve]
N#CCC(=O)Nc1ccc(C(=O)OCC(=O)c2ccc3c(c2)OCO3)cc1 4470 nM [activator, partial curve]
O=C(Nc1ccc2nc(-c3ccco3)[nH]c2c1)c1ccco1 3550 nM [activator, partial curve]
C/C(=C\C(=O)c1cccnc1)Nc1ccc(C)c(C)c1 3160 nM [activator, single point]
Cc1ccc(NC(=O)c2ccn(C)n2)c(Br)c1 3160 nM [activator, single point]
CCn1c(O)c(C=NC2CCCC(C)C2C)sc1=S (centres undefined) 1260 nM [activator, partial curve]
CCOc1ccc2nc(SCc3cccc(C)c3)nc(C)c2c1 4470 nM [activator, single point]
Nc1nn(-c2ccccc2)c(N)c1N=Nc1ccc2c(c1)OCO2 447 nM [activator, partial curve]
CCN1CCN(Cc2ccccc2NC(=O)Nc2ccc(C)cc2)CC1 3980 nM [activator, partial curve]
COc1ccccc1-c1nnc(NC(=O)CSc2nncn2C)s1 4470 nM [activator, single point]
COc1cccc(C(=O)Nc2cccc(-c3ccc(N4CCOCC4)nn3)c2)c1 3160 nM [activator, partial curve]
CCCCNC(=O)CCC(=O)Nc1ccc2nc(N3CCCCC3)cc(C)c2c1 2240 nM [activator, partial curve]

Potency, active:
Fc1ccc(-c2csc(Nc3ccccn3)n2)c(F)c1 1580 nM
Cc1cccc(-n2nnc(C(=O)Nc3ccc(F)cc3)c2N)c1 1580 nM
COc1cccc(C(=O)NNC(=O)c2ccccc2)c1 2510 nM
Cc1cc(NC(C)c2ccccc2)n2ncc(-c3ccccc3)c2n1 (centres undefined) 2510 nM
